Data: PubChem BioAssay AID1508642 (National Center for Advancing Translational Sciences (NCATS), 2021)
The campaign covered roughly 43,000 compounds. About 200 (0.47%) were called active. Roughly 12% stayed inconclusive and do not appear here. Calls come from the whole dose curve; as a rule, active = well fitted cell-killing curve with a large enough effect; inconclusive = small, poorly fitted or top-dose-only effect, or effect the other way; inactive = flat fitted curve, though single readings scatter. The list shows a part of the results.

Experiment: Cell viability qHTS assay in S16 Pmp22-F2sN cells; note: nearly all actives have a fitted effect of over 65% in size
Conditions: S16 Pmp22-F2sN Schwann cells (luciferase reporters placed in the Pmp22 gene) viability, CellTiter-Glo, 24 h; series mostly up to 57.5 µM; activity change, negative = cytotoxicity: at the top concentration
Procedure, shortened: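 Luminescence from CellTiter-Glo, read by CCD camera after a 15 min room-temperature incubation, served as the viability signal. Reporter Schwann cells (S16 Pmp22-F2sN) had been treated with pin-transferred compounds for 24 h at 37C.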
% is set by controls: 0 for no effect and ±100 for the full control effect.

Row | SMILES | activity change, negative = cytotoxicity
1 | COc1ccccc1CNC(=O)CC(c1ccc(C)cc1)N1Cc2ccccc2C1=O (configuration not stated) | inactive: 2.02%
2 | Cc1cc(C)cc(-n2ccn(Cc3ccccc3C)c(=O)c2=O)c1 | inactive: -1.81%
3 | Cc1ccc(OCC(=O)OC2=C(C(=O)c3ccccc3)N(C)S(=O)(=O)c3ccccc32)cc1 | inactive: -10.7%
4 | Cc1ccccc1NC(=O)c1sc2nc3n(c(=O)c2c1C)CCC3 | inactive: -2.25%
5 | Cc1oc(-c2ccc(C(=O)NCCC(C)C)cc2)nc1CN1CCc2ccccc21 | inactive: 21.5%
6 | COC(=O)CSc1nc2sc3c(c2c(=O)n1-c1ccccc1C)CC(C)(C)OC3 | inactive: 0.972%
7 | Clc1ccc(-c2nc3c4cnn(-c5ccccc5Br)c4ncn3n2)c(Cl)c1 | inactive: 13.5%
8 | CC(C)c1nn2c(=O)cc(COC(=O)c3cccc(NC(=O)c4cccs4)c3)nc2s1 | inactive: -15.4%
9 | CCCOc1ccc(-c2nonc2NC(=O)c2cc(OC)c(OC)c(OC)c2)cc1OCCC | inactive: -18.9%
10 | CCc1ccc(C2=NN(CCC(=O)NCCc3ccc(OC)c(OC)c3)C(=O)CC2)cc1 | inactive: 15.2%
11 | Cc1ccc(N2CC(NC(=O)c3cc4ccccc4o3)CC2=O)cc1C (configuration not stated) | inactive: 0.724%
12 | CCc1ccccc1NC(=O)CCOc1ccccc1 | inactive: 0.449%
13 | COCCNC(=O)c1c[nH]c2ccc(S(=O)(=O)Nc3ccc(F)cc3F)cc2c1=O | inactive: -2.99%
14 | Cn1ccc2c(OCC(=O)NCc3ccccc3)cccc2c1=O | inactive: -5.55%
15 | CCOC(=O)c1cnc2nc(NCc3cccc(Br)c3)[nH]n2c1=O | inactive: 2.9%
16 | CCc1ccccc1NC(=O)Cn1c(=O)n(-c2ccc(CC(=O)NCC3CCCO3)cc2)c(=O)c2ccccc21 (configuration not stated) | inactive: -1.73%
17 | COc1ccc(CSc2nc3ccncc3n2CC(=O)Nc2ccc(C)c(F)c2)cc1 | inactive: -2.17%
18 | Cc1ccccc1C(=O)Nc1ccc2nc(SCC(=O)N3CCc4ccccc43)sc2c1 | inactive: -1.18%
19 | COc1ccc(CNC(=O)c2ccc3c(c2)N(Cc2ccc(C)cc2)CCS3)cc1 | inactive: -1.88%
20 | CCOc1ccc(CNc2nc3nc(C)c(Cc4ccccc4)c(=O)n3[nH]2)cc1 | inactive: -0.41%
21 | COc1ccc2c(c1)CC(C(=O)Nc1cc(Cl)ccc1C)CO2 (configuration not stated) | inactive: -7.49%
22 | CCc1ccc(CNC(=O)C2Cc3cc(S(=O)(=O)N4CCCCCC4)ccc3N2C(C)=O)cc1 (configuration not stated) | inactive: 22.7%
23 | Cc1cn2c(=O)cc(COc3ccc(Cl)cc3)nc2s1 | inactive: -0.402%
24 | COc1cc(NC(=O)Nc2cccc(-c3noc(C)n3)c2)cc(OC)c1OC | inactive: -11.3%
25 | CCOc1ccc(-n2c(=O)c3c(C)c(C)sc3n(CC(=O)N(CC)Cc3ccccc3)c2=O)cc1 | inactive: -17.4%

Row | SMILES | activity change, negative = cytotoxicity
26 | Cc1ccc(Cl)cc1NC(=O)Cc1ccc(-n2c(C)nc3cccnc32)cc1 | inactive: -11.3%
27 | Cc1cccc(NC(=O)C2CCC(CNS(=O)(=O)c3ccc(Br)s3)CC2)c1 (configuration not stated) | inactive: -8.45%
28 | Cc1ccc(OCC(=O)Nc2ccc(Cl)c(-c3nc4ncccc4o3)c2)c(C)c1 | inactive: 18.9%
29 | COc1cccc(C2CC(=O)N(c3ccc(F)cc3)C3=C2C(=O)OC3)c1OC (configuration not stated) | inactive: -0.362%
30 | COc1cc(C2c3c(oc4ccccc4c3=O)C(=O)N2c2ccccn2)cc(OC)c1OC (configuration not stated) | inactive: -4.26%
31 | COc1ccc(N(Cc2cccs2)C(=O)c2ccc(OCC(C)C)cc2)cc1 | inactive: -0.426%
32 | CCCc1nn2c(=O)cc(COC(=O)c3ccccc3NC(=O)c3cccs3)nc2s1 | inactive: -13.4%
33 | Cc1ccc(S(=O)(=O)c2nc(S(C)(=O)=O)sc2N(C)Cc2ccccc2)cc1 | inactive: -0.264%
34 | Cc1cccc(NC(=O)C2CCC(CNS(=O)(=O)c3csc(C(N)=O)c3)CC2)c1C (configuration not stated) | inactive: 25%
35 | COCCCNC(=O)CSc1nc2c(sc3ccccc32)c(=O)n1CCc1ccccc1 | inactive: 20.6%
36 | COc1cc(NC(=O)CSc2nc3ccccc3nc2Cc2ccc(Cl)cc2)cc(OC)c1 | inactive: 6.32%
37 | Cc1nc2c(c(C)c1CCC(=O)NCc1ccccc1)c(=O)n(C)c(=O)n2C | inactive: -1.06%
38 | CCOC(=O)c1cccc(NC(=O)c2cc3c(-c4cccc(OC)c4)nn(C)c3s2)c1 | inactive: -5.4%
39 | Cc1nn(C)c2c1c(-c1ccccc1)cc(=O)n2CC(=O)Nc1ccccc1C(F)(F)F | inactive: 3.02%
40 | COc1ccc(NCc2cc3cc4c(cc3n(CC(=O)Nc3cc(C)cc(C)c3)c2=O)OCO4)cc1 | inactive: 9.19%
41 | O=C(COc1ccccc1Cl)Nc1nnc(S(=O)(=O)N2CCCCCC2)s1 | inactive: 6.13%
42 | O=C(NCCCc1nc2ccccc2n1Cc1c(F)cccc1Cl)C1CCCCC1 | inactive: 2.65%
43 | COc1cccc(Nc2cc(C)nc3nc(-c4ccc(Cl)cc4)nn23)c1 | inactive: 2.48%
44 | N#Cc1c(N)n(-c2cccc(Cl)c2)c2nc3ccccc3nc12 | inactive: 15.8%
45 | Cc1nn2c(=O)cc(COc3ccc(/C=C(\C#N)C(=O)Nc4ccc(F)cc4)cc3)nc2s1 | inactive: -1.57%
46 | CCCCNC(=O)CCCn1c(=O)c2ccccc2n(Cc2cccc(Cl)c2)c1=O | inactive: -2.9%
47 | Cn1c(CN2CCCCC2)nc2cc(NC(=O)c3ccccc3Cl)ccc21 | inactive: 7%
48 | Cc1ccc(OCC(=O)Nc2ccc3nc(SCC(=O)N4CCOCC4)sc3c2)cc1 | inactive: 1.58%
49 | NC(=O)c1nc(Nc2ccccc2)sc1NC(=O)c1ccccc1Br | inactive: -14.9%
50 | COc1ccc2nc(NC(=O)c3nc(SC(C)C)ncc3Cl)sc2c1 | inactive: 3.58%

Row | SMILES | activity change, negative = cytotoxicity
51 | O=C(NC1CCCC1)c1cc(Nc2cccc(C(F)(F)F)c2)nc2ccccc12 | inactive: 1.13%
52 | CCC(=O)N1CCc2cc(Br)cc(S(=O)(=O)CCC(=O)N3CCN(c4ccccc4F)CC3)c21 | inactive: -3.86%
53 | Cc1cc2oc(=O)cc(C)c2c2occ(-c3ccc(Cl)cc3)c12 | inactive: -2.67%
54 | Cc1cccc(N2CCN(C(=O)Cn3ncc4c5ccccc5n(C)c4c3=O)CC2)c1C | inactive: 8.33%
55 | COc1ccc(C(=O)Nc2ccc(-n3nncc3-c3ccccc3)cc2)cc1OC | inactive: -25.1%
56 | COc1cc(OC)cc(-c2cc3nc(C)c(CCC(=O)NCc4ccc(Cl)cc4)c(C)n3n2)c1 | inactive: -4.27%
57 | Cc1ccc(-n2nc(CO)c(C(=O)NCc3cccnc3)n2)cc1 | inactive: 5.21%
58 | CCc1ccccc1Nc1nc2ccccc2c2nncn12 | inactive: 0.24%
59 | CCc1ccc(S(=O)(=O)c2cn(Cc3ccccc3)c3cc(F)c(F)cc3c2=O)cc1 | inactive: -1.82%
60 | Cc1ccc2[nH]c3c(=O)n(CC(=O)N4CCCCC4)ncc3c2c1 | inactive: 4.87%
61 | Cc1ccc(C)n1-c1nnc(N2CCCC(C(=O)NCc3cccc(F)c3)C2)s1 (configuration not stated) | inactive: -14.7%
62 | COc1ccc(OC)c(CNC(=O)C2CCN(c3nc4ccccc4nc3C(F)(F)F)CC2)c1 | inactive: 27.1%
63 | COc1ccc(CCNC(=O)C(=O)NCC(c2cccs2)S(=O)(=O)c2ccc(C)cc2)cc1 (configuration not stated) | inactive: 5.55%
64 | O=C1c2[nH]nc(-c3ccccc3O)c2C(c2cccc(OCc3ccccc3)c2)N1CCO (configuration not stated) | inactive: 0.136%
65 | CCN(CC)C(=O)Cn1c(=O)n(-c2ccc(Cl)cc2)c(=O)c2c3c(sc21)CCC3 | inactive: 11.9%
66 | Cc1cn2c(=O)cc(COC(=O)c3cccc(NC(=O)c4ccccc4C)c3)nc2s1 | inactive: -1.72%
67 | COc1ccc(-n2nc(C)c3c(C(F)(F)F)cc(-c4cccnc4)nc32)cc1 | inactive: -4.15%
68 | COc1ccc(C(=O)COC(=O)C(Cc2c[nH]c3ccccc23)NC(=O)c2ccc(C(C)(C)C)cc2)cc1 (configuration not stated) | inactive: 3.24%
69 | COCCCNC(=O)C1CCN(c2nc3ccc(C)cc3[nH]2)CC1 | inactive: 12.5%
70 | COc1cccc(N2CCN(C(=O)CCS(=O)(=O)c3ccc4c(c3)oc(=O)n4C)CC2)c1 | inactive: -20.4%
71 | Cc1ccc(Cl)cc1Nc1nn2c(=O)c3ccc(C(=O)N4CCCC(C)C4)cc3nc2s1 (configuration not stated) | inactive: 9.24%
72 | CC(C)c1cnc2c(c1SCC(=O)Nc1cccc(F)c1)c(=O)n(C)c(=O)n2C | inactive: -10.1%
73 | CCn1cc2nc(SCc3cccc(Cl)c3)n(Cc3ccc(C)cc3)c(=O)c2n1 | inactive: -3.67%
74 | COc1ccc(CCNS(=O)(=O)c2cc(-c3cc(C)no3)ccc2C)cc1OC | inactive: -2.33%
75 | O=C(Nc1cccc(F)c1)C1CCN(S(=O)(=O)c2cccc3nsnc23)CC1 | inactive: 8.41%

Row | SMILES | activity change, negative = cytotoxicity
76 | CCc1ccc(CN2CCc3nc(N4CCN(CC)CC4)ncc3C2)cc1 | inactive: 0.0154%
77 | CN(C)c1ccc(CNC(=O)CCn2cccn2)cc1 | inactive: 1.03%
78 | CCN(C(=O)CSc1nc(-c2ccc(C(C)C)cc2)no1)c1cccc(C)c1 | inactive: -11.5%
79 | COc1ccc(CNC(=O)CCCn2nc(C)c3c(C)n(-c4ccccc4)nc3c2=O)cc1 | inactive: 5.13%
80 | COc1ccc(OC)c(NS(=O)(=O)c2ccc(-c3cc(C)no3)s2)c1 | inactive: 2.57%
81 | Cc1cccc(C(=O)Nc2nnc(S(=O)(=O)N(C)c3ccccc3C)s2)c1 | inactive: -3.97%
82 | Cc1ccc(-n2c(-c3ccco3)nc3c(cnn3-c3ccccc3Cl)c2=O)cc1 | inactive: 8.49%
83 | CSc1ccc(C2c3c(oc4cc(C)cc(C)c4c3=O)C(=O)N2Cc2ccco2)cc1 (configuration not stated) | inactive: -1.22%
84 | Cc1ccc(CCNC(=O)c2ccc3c(c2)N(Cc2cccc(Cl)c2)C(=O)c2ccccc2S3(=O)=O)cc1 | inactive: -14.4%
85 | Cc1cc(C)cc(OC(C)C(=O)Nc2c(C(=O)c3ccccc3)oc3ccccc23)c1 (configuration not stated) | inactive: 10.7%
86 | c1ccc(CSc2nc3ncccc3[nH]2)cc1 | inactive: 6.47%
87 | CCOc1ccc(CN(C(=O)c2cc(=O)c3cc(C)cc(C)c3o2)C2CCS(=O)(=O)C2)cc1 (configuration not stated) | inactive: 5.26%
88 | COc1cc(NC(=O)CCc2c(C)nc3cc(-c4ccccc4)nn3c2C)cc(OC)c1OC | inactive: 10.1%
89 | Cc1ccc2c(c1)c(=O)c(C(=O)c1ccc3c(c1)OCO3)cn2Cc1ccc(Cl)cc1 | inactive: -3.94%
90 | c1coc(-c2nc3n(n2)C2(CCCCC2)[C@@H]2CCCC[C@@H]2N3)c1 | inactive: 1.86%
91 | CN(C(=O)CSc1nnc(-c2ccccc2F)o1)C1CCCCC1 | inactive: 0.511%
92 | Cc1oc2ncnc(N3CCCCC3)c2c1C(=O)N1CCN(c2cccc(Cl)c2)CC1 | inactive: 1.2%
93 | CCCN1C(=O)C2(c3ccccc31)c1c(oc3ccc(F)cc3c1=O)C(=O)N2CCCOC(C)C (configuration not stated) | inactive: -0.371%
94 | Cc1ccc(NC(=O)C2CCCN(S(=O)(=O)c3cccc4cccnc34)C2)cc1 (configuration not stated) | inactive: -17.5%
95 | Cc1ccc(Cl)cc1NC(=O)c1oc2ccc(S(=O)(=O)N3CCCCC3)cc2c1C | inactive: -0.96%
96 | CCc1nonc1NC(=O)c1oc2ccc(Br)cc2c1C | inactive: 11.7%
97 | CCc1ccc(-n2c(=O)c3c4c(sc3n(CC(=O)N3CCC(C)CC3)c2=O)CCC4)cc1 | inactive: -1.93%
